From the supplement of paper PMC7826260
This is one part of the list. Viral Rep nickase domains cut single-stranded DNA in vitro (1 h at 37 °C, 3 µM enzyme); the outer parts of the 90-letter strands are left off. A value is the log2 ratio of uncut reads to the pool without enzyme; more negative means more cut, near 0 not cut, and no call is made. Counts are relative to all reads; where an enzyme cuts many sequences, the uncut ones exceed 0.

Experiments:
Assay in all cases: uncleaved DNA left, log2 of reads against the no-enzyme library (log2 ratio); higher = less cleavage (more negative = more Rep cleavage of the k-mer); sequences stand for … in CTCGTCCG…ACCGGAGA
[1] = test system: T1, Rep nickase domain of Muscovy duck circovirus
T1 sequence (Rep 1-111, printed without the tag): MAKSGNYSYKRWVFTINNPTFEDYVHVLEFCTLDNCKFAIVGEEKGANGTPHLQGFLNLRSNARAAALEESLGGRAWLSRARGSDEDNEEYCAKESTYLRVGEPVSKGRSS
Protocol: (§1)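 A pool of 90-nt single-stranded DNAs with seven random bases just before the constant AC of the nick site (name = the seven bases) was cut by 3 µM recombinant His6-SUMO-tagged Rep nickase domain (300 nM DNA, 50 mM HEPES pH 8.0, 50 mM NaCl, 1 mM MnCl2, 1 h, 37 °C, three replicates). Uncut DNA was amplified and sequenced.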

[2] = test system: T2, Rep nickase domain of banana bunchy top virus
T2 sequence (Rep 1-94, printed without the tag): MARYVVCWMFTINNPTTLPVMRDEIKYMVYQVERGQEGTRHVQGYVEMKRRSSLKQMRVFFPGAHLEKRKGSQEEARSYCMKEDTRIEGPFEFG
Protocol: as §1

[3] = test system: T3, Rep nickase domain of cabbage leaf curl virus
T3 sequence (Rep 1-116, printed without the tag): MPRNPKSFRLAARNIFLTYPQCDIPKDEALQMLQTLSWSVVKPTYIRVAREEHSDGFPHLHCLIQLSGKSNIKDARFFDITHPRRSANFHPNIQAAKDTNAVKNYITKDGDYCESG
Protocol: as §1

[4] = test system: T4, Rep nickase domain of chickpea chlorotic dwarf virus
T4 sequence (Rep 1-124, printed without the tag): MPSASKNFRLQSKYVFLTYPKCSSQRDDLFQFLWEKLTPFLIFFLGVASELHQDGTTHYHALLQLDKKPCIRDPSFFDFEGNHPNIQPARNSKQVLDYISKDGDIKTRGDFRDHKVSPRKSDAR
Protocol: as §1

[5] = test system: T5, Rep nickase domain of faba bean necrotic yellows virus
T5 sequence (Rep 1-98, printed without the tag): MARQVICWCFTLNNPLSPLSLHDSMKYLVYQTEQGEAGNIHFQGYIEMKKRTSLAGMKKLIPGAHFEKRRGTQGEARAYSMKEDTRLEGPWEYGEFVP
Protocol: as §1

[6] = test system: T6, Rep nickase domain of maize striate mosaic virus
T6 sequence (Rep 1-117, printed without the tag): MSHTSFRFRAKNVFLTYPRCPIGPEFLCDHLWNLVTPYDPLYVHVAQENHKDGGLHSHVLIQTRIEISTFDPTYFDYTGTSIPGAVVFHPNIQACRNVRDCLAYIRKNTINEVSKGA
Protocol: as §1

[7] = test system: T7, Rep nickase domain of porcine circovirus 2
T7 sequence (Rep 2-116, printed without the tag): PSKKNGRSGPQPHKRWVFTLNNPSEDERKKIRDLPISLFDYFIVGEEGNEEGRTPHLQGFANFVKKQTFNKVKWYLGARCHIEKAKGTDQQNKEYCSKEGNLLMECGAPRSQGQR
Protocol: as §1

[8] = test system: T8, Rep nickase domain of tomato golden mosaic virus
T8 sequence (Rep 1-124, printed without the tag): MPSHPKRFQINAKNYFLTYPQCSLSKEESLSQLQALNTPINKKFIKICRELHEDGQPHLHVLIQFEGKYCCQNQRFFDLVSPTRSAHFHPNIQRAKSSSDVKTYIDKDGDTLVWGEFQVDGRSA
Protocol: as §1

[9] = test system: T9, Rep nickase domain of tomato yellow leaf curl virus
T9 sequence (Rep 1-136, printed without the tag): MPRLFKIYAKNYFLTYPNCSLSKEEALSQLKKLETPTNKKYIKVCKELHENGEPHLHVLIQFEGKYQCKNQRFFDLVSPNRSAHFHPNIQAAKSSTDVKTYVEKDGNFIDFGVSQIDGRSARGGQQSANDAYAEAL
Protocol: as §1

[10] = test system: T10, Rep nickase domain of wheat dwarf virus
T10 sequence (Rep 1-137, printed without the tag): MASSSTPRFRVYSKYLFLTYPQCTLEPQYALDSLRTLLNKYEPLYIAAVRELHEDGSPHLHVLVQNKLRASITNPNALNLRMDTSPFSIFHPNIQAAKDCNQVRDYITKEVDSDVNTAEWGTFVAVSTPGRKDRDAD
Protocol: as §1

Sequence	uncleaved DNA left (log2) [1]	uncleaved DNA left (log2) [2]	uncleaved DNA left (log2) [3]	uncleaved DNA left (log2) [4]	uncleaved DNA left (log2) [5]	uncleaved DNA left (log2) [6]	uncleaved DNA left (log2) [7]	uncleaved DNA left (log2) [8]	uncleaved DNA left (log2) [9]	uncleaved DNA left (log2) [10]
TGTAGTT	0.0271	0.0586	0.167	-1.16	0.135	0.226	-0.585	0.0389	0.0415	0.0189
TGTGAGG	0.153	-0.0536	0.403	1.02	0.021	1.17	-0.0237	0.0771	-0.0886	-0.0899
ACCTACC	0.00469	0.0325	-0.279	-1.94	0.0641	-0.682	-0.445	-0.0166	0.0234	-0.0473
CGGGGTC	-0.0428	-0.0301	0.592	0.984	-0.000664	1.82	0.136	0.0268	-0.0598	-0.00745
GCCCATG	0.0835	-0.037	-0.37	-0.0272	-0.0431	-0.676	0.0349	-0.119	-0.186	0.078
CGGCGGG	0.0414	-0.0606	-0.039	0.154	0.129	0.342	0.222	0.0338	-0.138	-0.0345
TATGTAG	0.0538	-0.0735	-0.809	-0.401	0.123	-1.08	0.137	0.0201	0.104	-0.0154
TAGTCAT	-0.238	-0.9	0.0186	-0.745	-0.366	0.938	-3.83	0.0665	0.238	0.173
GTCTACA	-0.0318	0.024	0.228	0.545	-0.0752	1.6	0.0287	0.0766	0.054	0.0419
GTTGCCT	-0.0253	0.00807	0.0569	0.318	0.0251	0.397	-0.0433	0.0136	0.0692	0.105
CCGGAGC	-0.0285	-0.0371	-0.113	0.0253	-0.121	-0.408	-0.0248	-0.00909	-0.0679	-0.132
CTCGAGT	-0.0697	-0.129	-0.127	-0.353	-0.247	-0.757	-0.337	-0.0378	-0.0099	-0.181
AGCACCA	-0.234	-0.118	0.052	0.0147	-0.104	0.763	-0.272	-0.0208	-0.14	-0.0516
ACACATT	0.0779	0.0924	-0.351	-1.8	0.128	-0.645	-0.12	0.0393	-0.0701	0.00528
AGCATCT	-0.0719	0.0776	-0.011	-0.592	0.0235	0.684	-0.384	0.0798	-0.00394	0.135
CCTTAGC	0.0498	0.0342	-0.0328	-0.214	0.00225	-1.05	0.0314	0.102	0.0204	0.0111
TCGGCTG	0.0719	0.0619	0.12	0.776	0.0331	1.74	0.13	0.21	-0.0983	0.0839
GAGCTCC	0.129	0.139	0.219	0.445	0.168	1.09	0.0374	0.0752	0.12	0.182
TAACACT	0.0283	0.0302	-3.62	-3.39	0.0253	-1.62	-0.696	-0.858	-0.0493	-2.92
CCTAAAC	0.0494	0.0618	0.0978	-0.483	-0.0124	-0.613	0.143	0.0467	0.0274	-0.0419

Sequence	uncleaved DNA left (log2) [1]	uncleaved DNA left (log2) [2]	uncleaved DNA left (log2) [3]	uncleaved DNA left (log2) [4]	uncleaved DNA left (log2) [5]	uncleaved DNA left (log2) [6]	uncleaved DNA left (log2) [7]	uncleaved DNA left (log2) [8]	uncleaved DNA left (log2) [9]	uncleaved DNA left (log2) [10]
CGAGGGG	-0.0491	0.0163	0.166	0.64	-0.0419	0.424	0.142	-0.0297	-0.0238	0.00782
GTCATCT	-0.0672	0.0688	0.316	0.671	-0.0327	1.62	0.0488	0.0328	0.0609	0.152
CCCTGGA	-0.0583	-0.0561	-0.0597	-0.302	0.0747	-0.673	-0.131	0.00696	-0.0351	0.00614
ACTCATT	-0.23	-0.291	-0.369	-2.14	-0.0142	-0.88	-3.15	-0.166	-0.0906	-0.03
TTGGCCC	0.0162	0.0767	0.217	0.0823	0.0411	-0.224	-0.0925	-0.132	0.0836	0.0212
ATTGTTG	0.149	0.104	-0.71	-0.313	0.193	-1.18	0.167	0.0129	0.113	0.00971
ACGCACC	-0.029	0.0127	-0.222	-0.196	-0.161	-0.541	-0.0675	-0.122	-0.113	-0.075
TATCACT	-0.314	-0.0842	-0.488	-2.84	-0.0231	-0.501	-2.25	-0.157	0.00862	-0.0358
ATCTACT	-3.63	-1.96	-0.742	-3.06	-0.288	-0.718	-3.62	-0.151	-0.0461	-0.261
CCTTGCC	0.0115	-0.0904	-0.66	-0.862	0.0648	-0.997	-0.0766	-0.079	-0.0439	-0.0552
ACCTAGG	-0.174	-0.0595	-0.382	-0.0415	0.0452	-1.02	0.04	-0.0502	0.0567	-0.169
AGTATTA	-0.0825	-0.129	-0.0162	-0.639	-0.122	-0.277	-1.77	-0.139	-0.0136	0.0285
CTGTTTT	-2.7	-0.928	0.0414	-2.07	-0.678	-0.413	-3.12	-0.178	-0.215	-0.126
TACCTAT	0.112	0.0788	-0.33	-2.6	0.0475	-0.425	-1.95	0.00959	-0.000811	-0.0706
TCGCTCT	0.0832	0.0634	0.13	-1.57	-0.0261	-0.396	-0.279	0.129	0.109	-0.025
GTGAGTT	0.128	0.0296	0.451	0.932	0.135	1.56	0.0964	0.13	0.17	0.125
TCGGGAC	0.248	0.337	1.15	2.17	0.298	2.43	0.454	0.312	0.302	0.378
GGTACGC	-0.00462	0.0437	0.7	1.71	-0.0883	2	0.138	0.0616	0.125	0.171
AACTGTT	-3.66	-3.32	-1.76	-2.79	-0.503	0.294	-4.31	-0.624	-0.316	-0.46
GACGGCA	-0.0932	-0.0354	0.273	0.443	0.0194	0.349	-0.256	0.0408	-0.0467	-0.0647

Sequence	uncleaved DNA left (log2) [1]	uncleaved DNA left (log2) [2]	uncleaved DNA left (log2) [3]	uncleaved DNA left (log2) [4]	uncleaved DNA left (log2) [5]	uncleaved DNA left (log2) [6]	uncleaved DNA left (log2) [7]	uncleaved DNA left (log2) [8]	uncleaved DNA left (log2) [9]	uncleaved DNA left (log2) [10]
ATGAGGG	0.0694	-0.0809	-0.276	-0.0364	0.0607	-0.823	0.227	0.0558	0.0127	-0.00178
GACTGTC	0.0743	-0.0084	0.0681	0.557	0.103	0.892	-0.119	0.0759	-0.00796	0.0831
GGCGAGT	-0.0227	-0.0307	0.243	0.779	-0.0184	1.66	0.188	0.123	-0.0899	0.14
TCTCCTA	-0.111	-0.0301	0.0194	-0.508	0.0156	0.238	-0.127	-0.0778	-0.0184	-0.026
CCATAAC	0.0453	-0.103	-0.4	-1.79	0.0563	-0.973	0.083	-0.00631	0.00359	-0.331
CACGGCT	0.072	0.00776	-0.161	-1.12	0.0113	-0.577	-0.0186	0.00683	-0.11	-0.0124
GGAAGAC	0.0497	0.129	0.854	2.07	0.0751	2.2	0.251	0.0886	0.0825	0.243
TAATGCT	-4.06	-1.64	-4.71	-3	-0.0836	-4.08	-4.29	-4.63	-3.47	-4.71
CGGGTGC	-0.0174	0.039	0.00717	0.387	0.0498	0.422	0.12	0.0241	-0.067	0.0901
TACTCTT	-3.8	-3.56	-3.16	-3.4	-0.662	-1.21	-3.7	-1.21	-0.258	-1.29
AGAATAC	0.147	0.0142	0.0609	-0.308	-0.00651	-0.427	0.129	0.12	0.0115	0.111
GAGAATA	0.125	0.191	0.332	0.0317	0.0582	1.44	-0.67	0.124	0.203	0.319
GCGCAGT	0.146	0.102	0.203	0.622	0.0297	0.616	0.185	0.00985	0.123	0.195
AATGGTG	0.0182	-0.0542	-0.24	-0.183	-0.0127	-0.547	0.0968	0.00653	-0.104	-0.0257
ATGTACT	-3.5	-2.49	-0.344	-2.94	-2.95	-0.598	-3.71	-0.11	0.118	-0.0976
GGTCTTG	-0.0251	0.135	0.202	0.268	0.0263	0.782	0.0711	0.0437	0.0439	0.112
CTTTAAA	-0.154	-0.0279	-0.112	-0.356	-0.0565	-0.755	-0.0754	-0.0305	-0.109	-0.117
TACCCGC	-0.0787	-0.092	-0.498	-1.17	-0.0685	-1.04	-0.822	-0.148	-0.127	-0.14
ACCAGAA	-0.00353	0.0456	-0.0691	-0.0883	0.147	-0.753	0.082	-0.0149	-0.0466	0.00041
ACGTGGA	0.0327	0.0049	-0.239	-0.257	-0.0787	-0.605	-0.0871	0.00909	-0.199	-0.0807
